# PubChem BioAssay AID588591 (National Center for Advancing Translational Sciences (NCATS), 2011)
# Out of some 390,000 compounds screened, about 4,700 (1.2%) were called active. This list was built around the results that the source calls inconclusive (neither active nor inactive); the mix of calls is not that of the screen. Calls follow the shape of the dose curve; as a rule, active = well fitted inhibition curve with a large enough effect; inconclusive = small, poorly fitted or top-dose-only effect, or another doubt; inactive = no such curve, though single readings can be large or run the other way. A potency beside an inconclusive call is a rough fit, not a confirmed value.
# Target: DNA polymerase eta (Homo sapiens) (UniProt Q9Y253)
# UniProt Q9Y253, sequence (Q9Y253 whole entry, looked up): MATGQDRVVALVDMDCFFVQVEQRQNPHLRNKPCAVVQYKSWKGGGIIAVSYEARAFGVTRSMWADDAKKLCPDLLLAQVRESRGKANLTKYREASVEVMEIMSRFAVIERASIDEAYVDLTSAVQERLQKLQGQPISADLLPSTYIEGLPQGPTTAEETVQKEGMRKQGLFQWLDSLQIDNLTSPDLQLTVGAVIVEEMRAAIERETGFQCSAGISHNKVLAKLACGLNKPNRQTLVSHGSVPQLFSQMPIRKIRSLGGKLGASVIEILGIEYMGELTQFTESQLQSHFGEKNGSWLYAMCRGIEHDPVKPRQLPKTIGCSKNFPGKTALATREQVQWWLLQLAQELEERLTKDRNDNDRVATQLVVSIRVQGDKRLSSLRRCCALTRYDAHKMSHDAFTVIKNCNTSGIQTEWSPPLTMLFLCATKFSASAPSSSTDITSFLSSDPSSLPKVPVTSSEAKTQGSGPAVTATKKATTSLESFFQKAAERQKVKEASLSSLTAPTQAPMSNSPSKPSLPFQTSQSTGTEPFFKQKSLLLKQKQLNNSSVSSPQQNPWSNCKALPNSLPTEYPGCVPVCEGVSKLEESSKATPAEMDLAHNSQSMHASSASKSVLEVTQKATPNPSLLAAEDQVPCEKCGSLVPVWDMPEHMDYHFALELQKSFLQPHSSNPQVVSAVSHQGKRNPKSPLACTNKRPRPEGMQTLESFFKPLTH
# Assay: qHTS for Inhibitors of Polymerase Eta
# Details: recombinant Pol eta, fluorescent DNA replication assay; series mostly up to 114 µM
# In short: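 Fluorescent replication assay: 50 nM final substrate added after a 15 min room-temperature compound preincubation with 10 nM enzyme. Signal taken at 0 min and again at 10 min.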
# Potency is read from the fitted curve at half-maximal effect; tags tell the direction and shape of the fitted curve.
row,Structure (SMILES),Potency
1,CC1=CCC(C(=O)O)C(C(=O)Nc2ccc(-c3nc4ccc(C)cc4s3)cc2)C1 (stereo not drawn),active: 44.7 µM
2,CC1CCN(S(=O)(=O)c2cc3c4c(c2)CCN4C(=O)CC3)CC1,"inconclusive: 31.6 µM [inhibitor, partial curve, poor fit]"
3,COc1cc(/C=C2/C(=O)CNC2=O)ccc1O,inactive
4,COc1cc([N+](=O)[O-])ccc1NC(=O)CSc1nccn1C,"inconclusive: 89.1 µM [inhibitor, single point]"
5,O=C(N/N=C/c1ccc(O)cc1O)C1CC1,inactive
6,NC(=O)c1c(NC(=O)CSc2nnc(-c3ccco3)n2-c2ccccc2)sc2c1CCC2,active: 10 µM
7,Cc1cccc2cc(CN(CC3CCCO3)S(=O)(=O)c3ccccc3)c(=O)[nH]c12 (stereo not drawn),"inconclusive: 79.4 µM [inhibitor, partial curve, poor fit]"
8,CCOc1ccccc1N1CCN(c2nc(N)c(C#N)c(CC#N)c2C#N)CC1,"inconclusive: 31.6 µM [inhibitor, partial curve]"
9,CCC(C)Nc1nc(N)c([N+](=O)[O-])c(N2CCCCCC2)n1 (stereo not drawn),inactive
10,CC1(C)C(=O)Nc2ccccc2N1C(=O)COC(=O)C12CC3CC(CC(O)(C3)C1)C2,active: 14.1 µM
11,COC(=O)c1cc(OC)cc(O)c1C(=O)c1c(O)cc(C)cc1O,"inconclusive: 25.1 µM [inhibitor, partial curve, poor fit]"
12,CCCN(C(=O)c1cc2c(s1)CCC2)c1c(N)n(Cc2ccccc2)c(=O)[nH]c1=O,active: 25.1 µM
13,Cc1ccc(C(=O)OC2CCOC2=O)cc1NC(=O)c1ccco1 (stereo not drawn),"inconclusive: 39.8 µM [inhibitor, single point]"
14,COc1ccc(CNC(=O)C2CCN(S(=O)(=O)c3ccc4c(c3)CC(C)N4C(=O)C3CC3)CC2)cc1 (stereo not drawn),"inconclusive: 79.4 µM [inhibitor, partial curve, poor fit]"
15,CC(=O)c1ccc(NC(=O)CSc2ccc3nnc(-c4ccccn4)n3n2)cc1,"inconclusive: 14.1 µM [inhibitor, full curve]"
16,COc1cc(C(CC(=O)Nc2ccccn2)N2Cc3ccccc3C2=O)cc(OC)c1OC (stereo not drawn),inactive
17,CCOC(=O)c1c(NC(=O)CSc2nnc(-c3c[nH]c4ccccc34)n2CC)sc2c1CCCC2,"inconclusive: 100 µM [inhibitor, partial curve, poor fit]"
18,COc1cccc(Nc2cc(C)nc3nc(-c4ccc(Cl)cc4)nn23)c1,active: 79.4 µM
19,O=C(CSc1nnc(CNC(=O)c2ccco2)o1)Nc1ccccc1F,inactive
20,Cc1nn2c(=O)cc(COc3ccc(/C=C(\C#N)C(=O)Nc4ccc(F)cc4)cc3)nc2s1,"inconclusive: 100 µM [inhibitor, single point]"
21,Cn1c2ccccc2c2nnc(NN)nc21,"inconclusive: 15.8 µM [inhibitor, full curve, poor fit]"
22,CS(=O)(=O)c1ccc(C(=O)OCc2nnc(-c3ccc(Cl)cc3)o2)cc1[N+](=O)[O-],"inconclusive: 89.1 µM [inhibitor, single point]"
23,CCOC(=O)N1CCN(C(=O)c2cc(OCC)c(OCC)c(OCC)c2)CC1,inactive

row,Structure (SMILES),Potency
1,O=C(Nc1ccc(C(=O)O)cc1)/C(=C\c1ccco1)NC(=O)c1ccco1,"inconclusive: 17.8 µM [inhibitor, partial curve, poor fit]"
2,O=C(NCc1nc2ccccc2[nH]1)C1=C[C@H](C2CCCCC2)C[C@H](OCc2ccc(CO)cc2)O1,"inconclusive: 22.4 µM [inhibitor, partial curve, poor fit]"
3,CCOC(=O)c1ccc(NC(=O)Nc2nc3ccccc3s2)cc1,"inconclusive: 17.8 µM [inhibitor, partial curve, poor fit]"
4,Cc1ccc(Cl)cc1NC(=O)Cc1ccc(-n2c(C)nc3cccnc32)cc1,inactive
5,Cc1cn2c(=O)cc(COc3ccc(Cl)cc3)nc2s1,inactive
6,O=C(Nc1ncc(Cl)cc1Cl)c1c(F)cccc1Cl,inactive
7,CCNc1nc(NCC)n2c(SCC(=O)Nc3ccc(OC)c(OC)c3)nnc2n1,"inconclusive: 31.6 µM [inhibitor, partial curve, poor fit]"
8,NC(=O)c1nc(Nc2ccccc2)sc1NC(=O)c1ccccc1Br,inactive
9,CCCCNC(=O)CCCn1c(=O)c2ccccc2n(Cc2cccc(Cl)c2)c1=O,inactive
10,O=C(COC(=O)CNC(=O)c1ccco1)Nc1ncc(Cl)cc1Cl,"inconclusive: 39.8 µM [inhibitor, partial curve, poor fit]"
11,CCOc1ccc(-c2nc3c(c(SCC(=O)N4CCCCC4)n2)Cc2cccc(OC)c2O3)cc1,inactive
12,CN(C(=O)COC(=O)C12CC3CC(CC(Cl)(C3)C1)C2)c1ccccc1,"inconclusive: 79.4 µM [inhibitor, partial curve, poor fit]"
13,COc1ccccc1NS(=O)(=O)c1ccc(NN=C2CCCC2)c([N+](=O)[O-])c1,"inconclusive: 89.1 µM [inhibitor, partial curve, poor fit]"
14,CSCCOC(=O)c1[nH]c2c(c1C)C(=O)CC(c1ccco1)C2 (stereo not drawn),active: 17.8 µM
15,Cc1ccc2c(c1)N(CCCC(=O)Nc1cccc(C(F)(F)F)c1)C(=O)CO2,"inconclusive: 50.1 µM [inhibitor, partial curve, poor fit]"
16,N#Cc1ccc(CSc2nnc(NC(=O)c3ccc(=O)[nH]c3)s2)cc1,"inconclusive: 50.1 µM [inhibitor, partial curve, poor fit]"
17,CC(NC(=O)Cc1ccsc1)c1ccc(F)cc1 (stereo not drawn),inactive
18,COc1ccc2cc3c(N)nn(C(=O)c4ccc(OC)c(OC)c4)c3nc2c1,"inconclusive: 79.4 µM [inhibitor, single point]"
19,CC(=O)c1ccc(OC(=O)C2CSC3(C)CCC(=O)N23)cc1 (stereo not drawn),active: 8.91 µM
20,COc1cc(/C=C2/C(=O)NN(c3cccc(C)c3)C2=O)ccc1OC(=O)c1ccco1,active: 28.2 µM
21,N=C1/C(=C/c2coc3ccccc3c2=O)C(=O)N=C2SC(c3ccco3)=NN12,active: 3.16 µM
22,COc1cccc(Nc2nc(N)c([N+](=O)[O-])c(NCc3ccccc3)n2)c1,"inconclusive: 56.2 µM [inhibitor, partial curve, poor fit]"
23,Cc1nc2nc(-c3ccco3)nn2c(C)c1Cl,"inconclusive: 31.6 µM [inhibitor, single point]"

row,Structure (SMILES),Potency
1,Cc1ccccc1/C=N/Nc1nc2ccccc2c(=O)n1O,"inconclusive: 39.8 µM [inhibitor, partial curve]"
2,O=C(C1=C[C@@H](c2ccc(C(F)(F)F)cc2)C[C@@H](OCCCCO)O1)N1CCN(Cc2ccccc2)CC1,"inconclusive: 89.1 µM [inhibitor, partial curve, poor fit]"
3,O=C(Nc1nc(-c2ccccn2)cs1)c1ccc([N+](=O)[O-])o1,active: 35.5 µM
4,CCOC(=O)c1c(NC(=O)c2nc(S(C)(=O)=O)ncc2Cl)sc(C(C)=O)c1C,active: 79.4 µM
5,Cc1nn(C(=O)CNS(=O)(=O)c2ccccc2)c(C)c1Sc1ccc(Cl)cc1,"inconclusive: 3.55 µM [inhibitor, partial curve, poor fit]"
6,CCN(CC)CCCN=Cc1c(O)n(Cc2ccccc2)c(=O)c2ccccc12,"inconclusive: 44.7 µM [inhibitor, partial curve, poor fit]"
7,N#Cc1c(-c2ccccc2)nc(SCc2ccc(Cl)cc2)[nH]c1=O,active: 79.4 µM
8,COC(=O)C1CCN(C(=O)COC(=O)CSc2ccc(C(N)=O)cc2[N+](=O)[O-])CC1,inactive
9,COc1cccc(N=Nc2c(=O)[nH]n3c(=O)c4c([nH]c23)CCC4)c1,active: 50.1 µM
10,CCN(CC(=O)N1CCC(C(N)=O)CC1)S(=O)(=O)c1ccc(Cl)cc1,inactive
11,O=C(O)c1ccc(NC(=O)c2cccc(C(=O)Nc3ccc(C(=O)O)cc3)n2)cc1,inactive
12,COc1cccc2c1C(=O)C=C(C)C2=O,"inconclusive: 89.1 µM [inhibitor, single point]"
13,Cc1csc(NC(=O)c2sc3nc(-c4cccs4)ccc3c2N)n1,"inconclusive: 50.1 µM [inhibitor, partial curve, poor fit]"
14,O=C(Nc1ccc(O)cc1)c1ccc2c(c1)C(=O)N(Cc1ccco1)C2=O,active: 14.1 µM
15,COC(=O)c1sccc1S(=O)(=O)N(CC(=O)NCc1ccc(C)cc1)c1ccc(C)cc1,inactive
16,Cc1ncc(CO)c(/C=N/NC(=O)c2cc3c(s2)CCCC3)c1O,"inconclusive: 79.4 µM [inhibitor, partial curve, poor fit]"
17,Cc1ccc(CSc2nnc3[nH]c(=O)cc(-c4ccccc4)n23)cc1,"inconclusive: 31.6 µM [inhibitor, partial curve, poor fit]"
18,CCN(c1ccccc1)S(=O)(=O)c1ccc(C(=O)Nc2nnc(C3CC3)o2)cc1,"inconclusive: 89.1 µM [inhibitor, partial curve, poor fit]"
19,Nc1c(C=C2C=CC(=O)C=C2)c(=O)nc2snc(SCc3ccccc3)n12,"inconclusive: 50.1 µM [inhibitor, partial curve, poor fit]"
20,Cc1cc(C)c2nc(N3CCCN(C(=O)c4cnccn4)CC3)c(C#N)cc2c1,"inconclusive: 0.355 µM [inhibitor, partial curve, poor fit]"
21,Cc1ccc(C(=O)NCCNc2nc3cc(C)c(C)cc3cc2C)cc1,"inconclusive: 56.2 µM [inhibitor, partial curve, poor fit]"
22,O=c1cc(CN2CCN(S(=O)(=O)/C=C/c3ccccc3)CC2)c2ccc(O)cc2o1,"inconclusive: 5.62 µM [inhibitor, full curve, poor fit]"
